In the data set the test system is ATP. Put plainly: switch fluorescence ratio, 500 uM ATP over buffer (Cy3 cluster intensity, sum of 5 cycles each) (fold (ratio)); higher = stronger signal-on switching upon ATP binding; sequences stand for … in TCGTCGGCAGCGTCAGATGTGTATAAGAGACAGTTTTTTTTTTTTTTTTTTTTTTTTT…TC. As to conditions: aptamer strand: ATP DNA aptamer (quencher-CACCTGGGGGAGTATTGCGGAGGAAGG + anchor), 100 nM annealed; ATP concentration: 500 uM; one replicate. In outline:
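Clusters carrying Cy3-labelled switching strands on a modified Illumina MiSeq flow-cell were annealed to 100 nM quencher-labelled ATP aptamer and imaged in selection buffer. They were imaged again after 15 min with 500 uM ATP at 22 °C, over five buffer/ATP cycles with NaOH stripping and re-annealing in between. For each cluster, the fluorescence ratio is the summed Cy3 intensity of the target cycles divided by that of the buffer cycles, averaged per switch-domain sequence. Clusters outside 100-1000 RFU were left out.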

Sequences with one replicate were seen in a single cluster, so their values are uncertain.
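Further: ATP exposure 15 min at 22 °C before imaging.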

On to ATGGGTTAAT, for which the switch fluorescence ratio came out at 1.
On to GTCAACAGGT, for which the switch fluorescence ratio is 1.08.
The same measure for TGTTAGTATC: 0.985.
Take GTGTTCAACA: the switch fluorescence ratio was determined as 1.
The same measure for ACTTTTTTAC: 1.04; for AGGCTGCCTC: 1.02; for TCGGCCAGC: 1.06.
As to GGTCTCCGA, the switch fluorescence ratio amounted to 1.01.
Consider GATGTAACCA, for which the switch fluorescence ratio worked out at 1.12.
Consider AAACAGATGG, for which the switch fluorescence ratio was determined as 0.976.
For TTCGAGTGGC the value was 0.944; for TTAATACAA, 0.978.
For the sequence CTGTGACAAG, the switch fluorescence ratio was 0.965.
For TTTGCTTTAG the value was 0.963; for CGGGCTCGCG, 0.978.
Consider TCGCTTTCCT, for which the switch fluorescence ratio was 1.1.
The same measure for AGGAAACAGG: 1.02; for TTCGATACTG: 1.06.
In the case of CGAGGAGGTC, the switch fluorescence ratio was 1.03.
For GAGTTTACTG the value was 0.981; for GGGGACCTA, 0.969.
As to GGCGATCTGG, the switch fluorescence ratio is 1.02.
The same measure for AACGGCGCTT: 1.07; for CGGGCTGGAT: 1.01.
With GATAAAACGG, the switch fluorescence ratio worked out at 0.937.
Regarding AATCAACACG, the switch fluorescence ratio was determined as 1.05.
On to CGCCGTTCGC, for which the switch fluorescence ratio stood at 1.09.
Regarding TTTTGCTCGC, the switch fluorescence ratio was determined as 1.05.
The same measure for CTACAATGCA: 1.04.
For ACGAGTAATG the value was 1.03.
CCGAGCCCTT: the switch fluorescence ratio was found to be 1.68.
For the sequence GTAGTGGCTA, the switch fluorescence ratio was determined as 1.01.
As to AGGGTCCTAG, the switch fluorescence ratio came out at 0.959.
With AGGATTTCCA, the switch fluorescence ratio is 0.991.
The same measure for TGCCATTCAG: 1.04; for GGATGTAACC: 1.03; for CCGCTCTGCT: 1.38.
The same measure for GGTTTTCTAC: 0.985; for GTGAAGCAGG: 1.03.
For GCCCCAGCTT the value was 1.05; for GGGTTGGATC, 0.977; for TTCACTCGTG, 1.01.
On to GAACGCGGGC, for which the switch fluorescence ratio is 1.32.
For GATACGCGCA the value was 1.02.
For GAGGGGAG the value was 0.967; for AGCGCAGGGA, 1.03; for CGAAATTAAT, 1.04.
The same measure for TTCAGGGGA: 1.04; for CGGGATTGTT: 0.996; for TCTGCTGAAT: 1.04.
As to AAACGATCTA, the switch fluorescence ratio worked out at 0.994.
For the sequence CTGACAGCAG, the switch fluorescence ratio is 1.38.
For GAAGGAGAAC the value was 1.02; for AGTTCAATTT, 0.982.
For GTATGATC the value was 0.975; for GAATAATGAC, 1.04.
The same measure for ACTTCCGGTT: 1.07; for TGAGCTGTGG: 0.971.
For GGCTTACTGG, the switch fluorescence ratio worked out at 1.01.
As to TCCAAGAAGT, the switch fluorescence ratio is 0.97.
For GGAACTCGAA, the switch fluorescence ratio was found to be 0.959.
The same measure for GGTCCATCGT: 0.954; for AGGGTAATG: 1.01; for TTGGGCAGGT: 1.03.
For GCTCGGAGCA the value was 1.06.
The same measure for AACGGATATT: 0.947; for AATCGGCCCA: 1.39.
With GATGATATTA, the switch fluorescence ratio came out at 1.
The same measure for CTTACATGGG: 1; for CCAGGGCCGG: 1.01; for TCCGTAGTTT: 2.36.
For CACATGTTGC the value was 1.01.
For AGAAGTTCCA the value was 0.991; for TCAAACGATG, 1.02; for AACGGGCATT, 1.04.
For the sequence TACTGCTTGG, the switch fluorescence ratio came to 1.04.
For CAAGGGAGC the value was 1.
The same measure for ATCGCCTAAC: 1.15; for CTGACAAAA: 2.11; for GCCGAAGTGT: 1.02.
The same measure for TATCGGGGCG: 0.994; for AGGAAATTCG: 0.979; for CAATTTTCGT: 1.03.
Regarding CGGCTCGTTG, the switch fluorescence ratio is 1.04.
For GTATGAGCAG, the switch fluorescence ratio came to 0.958.
The same measure for CCAGTGTAAG: 0.989.
The same measure for TCAGCTCAGT: 1.01; for AAGGCTGTCG: 0.968; for ATTTCTCCAT: 0.991.
For CACACGGCGC the value was 1.06; for CACGACCGAC, 2.09.
As to TTTTTGTGC, the switch fluorescence ratio came to 0.991.
On to CTGTTGTTTC, for which the switch fluorescence ratio stood at 1.01.
With CGTGACATTA, the switch fluorescence ratio is 1.03.
As for ACTATACCCC, the switch fluorescence ratio stood at 2.9.
The same measure for TCGCGCACCC: 1.27; for ACGTGGGTAT: 1.01; for ACATCACTTT: 1.32.
The same measure for GATCCATGGC: 1.02; for GCTACACCTA: 1.1; for TGGGAGTGTT: 0.97.
For TCCAAGCCGC the value was 1.49.
Regarding ACGTGTGAAA, the switch fluorescence ratio amounted to 0.936.
The same measure for CGTGCCTGGG: 0.995.
For TATCACCAAT the value was 1.17; for GACTGTTTGG, 1.01; for TAGTGGTGTG, 1.02.
For TGAGGGTAGT the value was 0.985; for GTCCTAGAAT, 0.968.
Turning to TGTCCAATCA, the switch fluorescence ratio turned out to be 0.972.
The same measure for AGGTTAGTTG: 1.01; for TTAAGTTATC: 1.03; for CCGATGAGT: 0.951.
As for CCGGGTGGGA, the switch fluorescence ratio was found to be 1.03.
On to TGCCTCGAAA, for which the switch fluorescence ratio came to 1.25.
TATCAAGTCC: the switch fluorescence ratio was 0.981.
The same measure for ACCGACTAGA: 1.12; for GACAAAGAAT: 1.04.
As to CTTATGAACA, the switch fluorescence ratio amounted to 1.04.
As for ATTAACTAAT, the switch fluorescence ratio is 1.02.

The values are drawn from the supplement of paper PMC10126150.
